PMC4336329 (PLoS ONE, 2015)
Hit rate of the full screen: of about 310,000 compounds, about 14,000 (4.5%) showed an effect of 50% or more. Effects have a minus sign here. This is one part of the list.

target: human ether-à-go-go-related gene (hERG) potassium channel (human, UniProt Q12809); test: primary screen, population patch clamp on CHO cells stably expressing hERG
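Further: peak tail current of the secondary pulse compared with the same well before compound.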

human ether-à-go-go-related gene (hERG) potassium channel, sequence (Q12809 whole entry, looked up): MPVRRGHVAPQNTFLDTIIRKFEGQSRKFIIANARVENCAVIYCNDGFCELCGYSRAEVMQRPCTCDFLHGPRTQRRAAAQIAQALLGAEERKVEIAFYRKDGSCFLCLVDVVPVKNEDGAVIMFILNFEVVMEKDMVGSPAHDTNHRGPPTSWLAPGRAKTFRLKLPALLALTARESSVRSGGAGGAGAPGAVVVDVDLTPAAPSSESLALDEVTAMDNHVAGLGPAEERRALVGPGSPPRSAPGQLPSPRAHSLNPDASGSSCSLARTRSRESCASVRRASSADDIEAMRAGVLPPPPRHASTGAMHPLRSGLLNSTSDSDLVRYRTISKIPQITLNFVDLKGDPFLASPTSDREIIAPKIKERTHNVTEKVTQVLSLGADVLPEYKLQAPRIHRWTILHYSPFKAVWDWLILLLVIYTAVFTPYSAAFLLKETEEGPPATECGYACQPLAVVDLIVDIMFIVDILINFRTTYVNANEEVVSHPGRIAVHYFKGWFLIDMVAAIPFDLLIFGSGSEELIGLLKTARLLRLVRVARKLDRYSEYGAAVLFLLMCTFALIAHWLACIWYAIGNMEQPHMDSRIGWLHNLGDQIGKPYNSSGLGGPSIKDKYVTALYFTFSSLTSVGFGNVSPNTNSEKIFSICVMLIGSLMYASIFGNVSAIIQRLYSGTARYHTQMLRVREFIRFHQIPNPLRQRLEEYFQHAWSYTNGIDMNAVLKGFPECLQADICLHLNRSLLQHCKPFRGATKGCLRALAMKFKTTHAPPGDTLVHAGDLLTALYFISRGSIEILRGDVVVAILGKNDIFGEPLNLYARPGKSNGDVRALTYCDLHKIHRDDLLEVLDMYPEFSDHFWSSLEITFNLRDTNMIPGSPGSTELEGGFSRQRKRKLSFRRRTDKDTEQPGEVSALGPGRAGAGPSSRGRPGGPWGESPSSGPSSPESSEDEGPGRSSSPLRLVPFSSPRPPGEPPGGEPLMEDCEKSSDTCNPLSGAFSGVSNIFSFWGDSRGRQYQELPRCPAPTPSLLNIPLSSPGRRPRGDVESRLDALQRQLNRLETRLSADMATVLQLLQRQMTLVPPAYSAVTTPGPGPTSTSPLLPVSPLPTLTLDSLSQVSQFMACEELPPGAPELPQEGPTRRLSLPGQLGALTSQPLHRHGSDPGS

Structure (SMILES)	hERG current change (%, negative = inhibition) at 10uM [%]
Cc1c(Oc2ccc(C(F)(F)F)cc2[N+](=O)[O-])ccc2c3c(c(=O)oc12)CCC3	-0.903
CC1CS(=O)(=O)CCN1N=Cc1ccc([N+](=O)[O-])o1 (stereo not shown)	-2.66
CC(C(=O)Nc1cccc(S(=O)(=O)N2CCOCC2)c1)N1CCN(C/C=C/c2ccccc2)CC1 (stereo not shown)	-75
C#CCn1cccc(C(=O)Nc2ccc(OC)cc2)c1=O	-0.236
COc1ccc(CCNC(=O)c2ccc(CNS(=O)(=O)c3cccc(Cl)c3)cc2)cc1OC	-16.4
O=C(COC(=O)C(Cc1ccccc1)NC(=O)c1ccco1)NC1CC1 (stereo not shown)	5.59
COc1cc(C2C(C(=O)c3ccco3)=C(O)C(=O)N2Cc2ccccc2)ccc1O (stereo not shown)	19.1
N#Cc1cc2c(nc1SCC(O)CS(=O)(=O)Cc1ccccc1)CCCC2 (stereo not shown)	-35.9
Cc1ccc(C(=O)COC(=O)CNC(=O)c2ccccc2)s1	1.41
COc1cc(CCC(=O)Nc2c(C(=O)N3CCN(c4ccccc4OC)CC3)oc3ccccc23)on1	-5.8
COc1ccc(S(=O)(=O)N2CCCCCC2)cc1C(=O)N(C)Cc1ccccc1F	-53.2
O=S1(=O)CCO[C@H]2Cc3ccccc3[C@H]2N1Cc1cccc(F)c1	-22.1
Nn1c(COc2ccccc2)nnc1SC(F)F	1.8
O=C(NCc1ccc(/C=c2\sc3n(c2=O)CCN=3)o1)C(=O)Nc1ccccc1	7.82
CCC1(c2ccccc2)NC(=O)N(CC(=O)NC2(C#N)CCCCC2)C1=O (stereo not shown)	2.94
COc1ccc2nc(N3C(=O)C(O)=C(C(=O)c4ccco4)C3c3ccccc3OC)sc2c1 (stereo not shown)	13.1
C#CCNC(=O)C1=C[C@@H](c2csc3ccccc23)C[C@@H](OCc2ccc(CO)cc2)O1	-13.2
Cc1ccc(NC(=O)c2ccccc2)cc1OC(=O)c1ccccc1	15.2
COc1cccc(NC(=S)N(CCCN2CCCC(C)C2)Cc2cccs2)c1 (stereo not shown)	-67.4
C/C=C/c1ccccc1OCc1ccc(C(=O)OC)o1	1.46
COc1ccc(S(=O)(=O)N2CCCCCC2)cc1C(=O)N(C)CC(=O)Nc1c(Cl)cccc1Cl	-28.1
CCc1nn2c(=O)cc(COC(=O)c3ccc(SC)cc3OC)nc2s1	-18.7

Structure (SMILES)	hERG current change (%, negative = inhibition) at 10uM [%]
CCCCc1ccc(NC(=O)COc2ccc(C(=O)Nc3ccccc3OCC)cc2)cc1	12
CCC(Cc1ccccc1)NC(=O)C1CCN(c2nn3c(=O)cc(C)nc3s2)CC1 (stereo not shown)	-18.8
COc1cccc(NCc2cc(=O)oc3cc(C)c(C(C)C)cc23)c1	16.4
COc1ccccc1N1CCN(Cc2c[nH]c3ccccc23)CC1	-55.8
Cc1ccc2c(C)c(C(=O)Nc3ccc(S(=O)(=O)Nc4onc(C)c4C)cc3)oc2c1	-2.03
Nn1c(Cc2ccc(F)cc2)n[nH]c1=S	16.5
CCOc1ccc(-c2nnn(CCC#N)n2)cc1OC	15.2
O=Cc1cc(N=Nc2ccc(S(=O)(=O)[O-])cc2)ccc1O.[Na+]	36.1
c1cc2c(cc1C1CCCCC1)c1c3n2CCN=C3CCC1	-33.9
CC(=O)c1ccc(NC(=O)Nc2ccc([N+](=O)[O-])cc2C)cc1	-13.3
NC(=S)N=Nc1c(O)n(Cc2ccc(F)cc2)c2ccccc12	12.4
COCCn1c(C)cc(/C=C2\NC(=S)N(C)C2=O)c1C	6.01
COc1ccc(C(=O)CNc2ccccc2C#N)cc1	28.1
COc1cc(SC)ccc1C(=O)Nc1ccccc1C#N	3.84
COc1cc(/C=N/NC(=O)c2cc3ccccc3cc2O)ccc1OCCN1CCCCC1	-65.9
O=C(CSc1ccc(Cl)cc1)OCc1nnc(-c2ccccc2)o1	5.33
CC(N=c1ccccn1C(=O)Nc1cccc(C(F)(F)F)c1)c1ccco1 (stereo not shown)	-2.34
COc1ccc(CC(C)NC2CCCCCC2)cc1 (stereo not shown)	2.9
O=C(/C=C\Nc1ccc(Cl)cn1)c1ccc(Br)cc1	4.41
COc1ccccc1CC(=O)Nc1ccc(NC(=O)c2cccs2)cc1	0.16
C#CCNC(=O)C1=C[C@@H](c2ccccc2)[C@H](CCCO)[C@@H](OCC)O1	13.3
CC(/C=C/c1ccccc1)=N/NC(=O)C(O)c1ccccc1 (stereo not shown)	42.9

Structure (SMILES)	hERG current change (%, negative = inhibition) at 10uM [%]
Cc1ccc2nc(SCC(=O)N3CCN(c4ccccc4)CC3)[nH]c2c1	1.42
CC(C)C(=O)Nc1nnc(NC(=S)Nc2ccccc2)s1	7.63
O=C(c1cc2sccc2n1Cc1ccccc1)N1CCN(c2nc3ccccc3s2)CC1	-17
N#C/C(=C\c1cn(CC(=O)O)c2ccccc12)C(=O)NCc1ccccc1	12
CCC(=O)Nc1ccc(/C(C)=N\NC(=O)c2ccc(C)s2)cc1	5.93
CC(=O)Nc1cccc(/C(C)=N/Nc2nc3ccccc3s2)c1	2.1
CCCN1CCN(C(=O)Nc2ccc(OCC)cc2)CC1	-1.93
Cl.Clc1cccc(OCCn2ccnc2)c1	10.2
COc1ccc(C(=O)Nc2cc3c(cc2Cl)OCCCO3)cc1	8.27
O=C(NCCNC(=O)c1cc(Cl)ccc1Cl)c1ccco1	-32
COc1cc(C(c2oc(CO)cc(=O)c2O)c2oc(CO)cc(=O)c2O)cc(OC)c1OC	24.9
O=C(Nc1cccc(Cl)c1)Nc1ccc2c(c1)C(=O)OC2	3.43
CCC1(CC)C(=O)NC(=Nc2cccc(C(F)(F)F)c2)NC1=O	5.57
CCn1cc(C(=O)NCCCOC(C)C)c(=O)c2cc(S(=O)(=O)N3CCOCC3)ccc21	-7.88
CCN(CC)S(=O)(=O)c1ccc(Cl)c(NC(=O)COc2ccc(OC)cc2)c1	16.4
Cl.O=C(Oc1cccc2cccnc12)c1cccs1	-2.13
Cc1cccc(CSc2nc3c(c(=O)[nH]2)CCCC3)c1	5.48
O=C(Cn1ncc2c3ccccc3n(Cc3ccccc3)c2c1=O)NCc1ccco1	4.65
Cc1ccc(C(C)NC(=O)c2cccnc2)cc1 (stereo not shown)	11.2
C#CC1(OC(=O)c2ccccc2)CC(C)N(C)CC1C.Cl (stereo not shown)	4.84
Cc1cc([N+](=O)[O-])nn1Cc1noc(C(=O)NCCCn2ccnc2)n1	4.61
COCCN(CCOC)Cc1c(O)ccc2c1O/C(=C\c1ccc(C)o1)C2=O	23.1

Structure (SMILES)	hERG current change (%, negative = inhibition) at 10uM [%]
COc1cccc(OC)c1C(=O)NC(=S)Nc1ccc(S(=O)(=O)Nc2nccs2)cc1	14.6
COc1ccc(N2CCN(S(=O)(=O)CCNC(=O)C34CC5CC(CC(C5)C3)C4)CC2)cc1	8.8
COc1ccccc1N(CC(=O)Nc1c(C)cccc1C)S(C)(=O)=O	-5.4
Cc1ccc(SCCCCN2C(=O)NC(C)(C)C2=O)cc1	-2.85
COc1cc2c(C(=O)NCc3ccc4c(c3)OCO4)cn(CC(C)C)c(=O)c2cc1OC	7.61
COCOc1ccc(C=O)c(OCOC)c1	7.05
CC(C)Cn1c(CN2CCCCC2C)nc2c1c(=O)n(C)c(=O)n2C (stereo not shown)	12.7
COc1ccc(-c2nc(N3CCC(C)CC3)[nH]c(=O)c2C#N)cc1	1.99
CCOC(=O)Cn1nc(C)c(NC(=O)COc2ccccc2[N+](=O)[O-])c1C	24.7
N#Cc1nc(COc2ccccc2)oc1N1CCN(c2cccc(Cl)c2)CC1	4.52
CSc1ccccc1NC(=O)N1CCC(CO)(CC2CCCCO2)CC1 (stereo not shown)	18.6
CSCC[C@H](NC(=O)C1CCN(C(=O)[C@@H](N)Cc2ccccc2)CC1)C(=O)O	10.8
CCCc1cc(=O)[nH]c(SCC(=O)N(CC)Cc2ccccc2)n1	7.9
Clc1ccc2c(c1)C(OC1CN3CCC1CC3)c1ccccc1CS2.O=C(O)/C=C\C(=O)O (stereo not shown)	-50.6
Fc1ccc(-c2nnc(CSc3nnc4ccccn34)o2)cc1	-4.03
CCCc1cc(=O)[nH]c(Nc2cc(OC)ccc2OC)n1	4.36
Cc1ccccc1-n1nnnc1SC(C)C(=O)NC1CCCc2ccccc21 (stereo not shown)	-18.4
CC(=O)Nc1nnc(SCC(=O)NC2CCCC2)s1	17.4
COc1ccc(N(CC(=O)NC2CC3CCC2C3)S(=O)(=O)c2ccc(C)cc2)cc1OC (stereo not shown)	33.9
Cc1cc(Cn2nc(-c3ccccc3)cc2C(=O)NCC2CC2)on1	9.32
COc1ccc(NCc2ccc(OC)c(OC)c2)cc1	2.67
CC(=O)c1ccc(NC(=O)Cn2cnc(S(=O)(=O)N3CCOCC3)c2)cc1	19.9
